# PMC4336329 (PLoS ONE, 2015)
# Out of some 310,000 compounds screened, about 14,000 (4.5%) showed an effect of 50% or more. The effect is printed as a negative number. This is one part of the list.
# Molecular target: human ether-à-go-go-related gene (hERG) potassium channel (human, UniProt Q12809)
# Assay: primary screen, population patch clamp on CHO cells stably expressing hERG
# 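Note: peak tail current of the secondary pulse compared with the same well before compound.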
# Chain of human ether-à-go-go-related gene (hERG) potassium channel (Q12809 whole entry, looked up): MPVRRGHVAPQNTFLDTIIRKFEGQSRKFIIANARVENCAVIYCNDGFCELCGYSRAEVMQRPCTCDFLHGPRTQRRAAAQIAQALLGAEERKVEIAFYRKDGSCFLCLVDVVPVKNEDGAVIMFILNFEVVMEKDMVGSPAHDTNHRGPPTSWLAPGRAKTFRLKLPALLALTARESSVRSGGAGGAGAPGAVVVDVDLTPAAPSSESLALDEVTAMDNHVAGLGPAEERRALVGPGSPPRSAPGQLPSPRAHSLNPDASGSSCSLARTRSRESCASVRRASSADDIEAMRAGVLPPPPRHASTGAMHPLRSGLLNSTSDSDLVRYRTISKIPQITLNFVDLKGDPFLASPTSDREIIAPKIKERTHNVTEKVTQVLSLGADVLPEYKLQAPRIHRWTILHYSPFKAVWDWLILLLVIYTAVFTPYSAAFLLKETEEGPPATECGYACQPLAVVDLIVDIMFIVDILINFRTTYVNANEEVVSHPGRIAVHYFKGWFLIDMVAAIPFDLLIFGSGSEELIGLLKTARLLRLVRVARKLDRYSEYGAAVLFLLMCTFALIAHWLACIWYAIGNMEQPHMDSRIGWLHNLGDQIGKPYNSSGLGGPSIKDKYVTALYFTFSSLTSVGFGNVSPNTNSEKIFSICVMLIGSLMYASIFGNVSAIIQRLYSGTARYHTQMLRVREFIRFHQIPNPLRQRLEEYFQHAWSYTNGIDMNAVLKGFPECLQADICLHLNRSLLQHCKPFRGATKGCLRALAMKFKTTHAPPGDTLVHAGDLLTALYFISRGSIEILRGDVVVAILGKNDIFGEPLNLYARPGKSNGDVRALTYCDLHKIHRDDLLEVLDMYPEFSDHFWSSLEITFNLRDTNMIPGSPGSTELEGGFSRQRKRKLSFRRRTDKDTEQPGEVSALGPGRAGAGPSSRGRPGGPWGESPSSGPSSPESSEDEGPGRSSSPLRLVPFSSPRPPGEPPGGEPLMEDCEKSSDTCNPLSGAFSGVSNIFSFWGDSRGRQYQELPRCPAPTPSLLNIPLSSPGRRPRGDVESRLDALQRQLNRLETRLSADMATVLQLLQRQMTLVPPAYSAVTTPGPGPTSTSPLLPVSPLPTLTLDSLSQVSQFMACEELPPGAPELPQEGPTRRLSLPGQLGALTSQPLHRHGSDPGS
row,Structure (SMILES),"hERG current change (%, negative = inhibition) at 10uM [%]"
1,O=C(c1cc(-c2cccc(Cl)c2)nc2ccccc12)N1CCCC1,-40.2
2,CC(C)OC(=O)/C(C#N)=C/c1ccc(-c2ccc(SC(F)F)cc2)o1,10.2
3,COc1ccc(/C=C/C(=O)N2CCN(S(=O)(=O)c3ccccc3)CC2)cc1OC,-9.26
4,NC1CCCCC1N=Cc1c(O)n(Cc2ccc(F)cc2)c(=O)[nH]c1=O (stereo not drawn),0.861
5,CC(OC(=O)/C=C/c1ccccc1)C(=O)NC1CCCCC1C (stereo not drawn),-7.05
6,Cc1ccc(NC(=O)c2ccccc2F)cc1S(=O)(=O)N1CCCCCC1,9.92
7,Cc1ccc(O)c(NC(=O)CSc2n[nH]c(C)c2[N+](=O)[O-])c1,13.8
8,C=CCN1c2ccccc2[C@]23C[C@@H](C(=O)OC)N(C(=O)CC(C)C)C2=NC(C(=O)OC)=C(C(=O)OC)[C@H]13,-12.3
9,COCCNS(=O)(=O)c1cc2[nH]c3c(c2cc1C)C(=O)CC(C)(C)C3,17.8
10,CCCC(=O)NCCc1nc2ccccc2n1CC(=O)c1ccccc1,-12.8
11,CCOC(=O)N1CCN(C(=O)CCC(=O)c2ccc(OCC)cc2)CC1,-1.5
12,O=C(CSc1nnc(-c2cccnc2)o1)Nc1ccccc1F,9.96
13,O=c1c2c3c(sc2ncn1Cc1ccc(F)cc1)CCC3,-15.3
14,CN1C(=S)SC(/[N+]([O-])=C\c2ccc(Cl)cc2)C1(C)C (stereo not drawn),-4.58
15,COc1cccc(CN2CCN(C3CCOCC3)CC2CCO)c1 (stereo not drawn),0.171
16,CCN(CC)S(=O)(=O)c1ccc2c(c1)nc(CCC(=O)Nc1ccc(N3CCOCC3)cc1)n2C,-6.8
17,COc1cccc2cc(C(=O)c3ccccc3)oc12,0.79
18,CCC(C)NC(=S)Nc1ccc(F)cc1 (stereo not drawn),14.6
19,CC1(c2ccc(Cl)cc2)NC(=O)N(CC(=O)N2CCc3ccccc3C2)C1=O (stereo not drawn),-38.9
20,CCn1cnc2cc(NC(=O)c3cccs3)ccc21,-6.25
21,COc1ccc(CN(C(=S)Nc2ccccc2)C2CC(=O)N(c3ccc(Cl)cc3)C2=O)cc1 (stereo not drawn),1.63

row,Structure (SMILES),"hERG current change (%, negative = inhibition) at 10uM [%]"
1,COc1ccc(C(=S)N2CCOCC2)cc1OC(=O)c1ccccc1,5.91
2,COC(=O)C1=C(c2ccc(F)cc2OCc2ccccc2)C[C@@H]2CC[C@H]1N2C(=O)NCc1ccc([N+](=O)[O-])cc1,-10.9
3,O=C(CCl)Nc1ccccc1C(=O)c1ccccc1,-3.69
4,O=C(Nc1nc(-c2ccc(F)c(F)c2)cs1)c1cnccn1,0.033
5,CC1(C)Cc2ccccc2C(N/N=C/c2ccc([N+](=O)[O-])cc2)=N1,16.9
6,O=C1OC(/C=C/c2ccc(Cl)cc2)=NC/1=C/c1ccco1,2.78
7,Cc1ccc(-c2c(C(=O)O)c3ccccc3[nH]c2=O)cc1,18.7
8,CN(CC(=O)Nc1ccc(F)cc1)C(=O)C1CCCC1,-12.3
9,COc1ccc(Cc2nnc(NS(=O)(=O)c3ccc(NC(C)=O)cc3)s2)cc1,13.7
10,O=C(Nc1ccccc1N1CCOCC1)c1ccco1,0.742
11,COc1ccc(CSc2nnc(Cc3sc(-c4ccccc4)nc3-c3ccccc3)o2)cc1,8.16
12,Nc1nc(N)c(N=Nc2ccc(S(N)(=O)=O)cc2)c(=O)[nH]1,18.1
13,CC(/C=N\NC(=O)c1ccc(C)nc1)=C\c1ccccc1,12.1
14,O=C(NC(=S)Nc1ccccc1N1CCCC1)c1ccc([N+](=O)[O-])cc1,10.2
15,CC(Oc1ccc2c(-c3ccccc3)cc(=O)oc2c1)C(=O)NCCN1CCOCC1 (stereo not drawn),-2.98
16,O=C(CC12CC3CC(CC(C3)C1)C2)NCC(=O)N1CCc2ccccc2C1,-8.36
17,CCO[C@@H]1OC(C(=O)N2CCN(Cc3ccccc3)CC2)=C[C@H](C2CC2)[C@H]1CCCO,-23.8
18,Cc1[nH]nc(SCC(=O)NCc2ccc(Cl)cc2)c1[N+](=O)[O-],6.48
19,CCOC(=O)c1ccc(N2C(=O)CC(Nc3ccc(O)cc3)C2=O)cc1 (stereo not drawn),1.63
20,COc1ccc(C2C(C(=O)N3CCN(c4ccccn4)CC3)CCC(=O)N2c2cc(OC)c(OC)c(OC)c2)cc1 (stereo not drawn),9.77
21,CCOC(=O)c1sc(N2C(=O)C(O)=C(C(=O)c3ccc(C)o3)C2c2cccc([N+](=O)[O-])c2)nc1C (stereo not drawn),17.8

row,Structure (SMILES),"hERG current change (%, negative = inhibition) at 10uM [%]"
1,COc1ccc(N2CCN(C(=O)c3ccc4c(c3)[nH]c(=S)n3c5ccccc5nc43)CC2)cc1,16.7
2,CC(C)(C)c1ccc(OCC(=O)N/N=C/c2ccc(N3CCOCC3)cc2)cc1,-10
3,O=C(Nc1cc(F)ccc1F)c1cccc(-n2cnnn2)c1,-18.3
4,COc1ccc(OC)c(S(=O)(=O)Nc2c(F)cccc2F)c1,16
5,Cl.Clc1cccc(Cl)c1CNC1CCCC1,13.5
6,COc1ccc(NS(=O)(=O)c2cccc(C(=O)NNC(=O)c3ccc(NC(C)=O)cc3)c2)cc1,-5.82
7,CSc1ccc(/C=C2\C(=N)N3N=C(CC(=O)N4CCCCC4)SC3=NC2=O)cc1,5.53
8,CCOc1ccccc1OCCCC(=O)NNC(=O)c1cc(C)oc1C,14.9
9,CCCCCCC1/C(=N/O)CCC1C(=O)OC (stereo not drawn),-4.75
10,Cc1occc1C(=O)NNC(=O)C1CCCCC1,7.55
11,O=[N+]([O-])c1ccccc1S(=O)(=O)Nc1cccnc1,40.3
12,Cc1oc(/N=C/c2cccc3ccccc23)c(C#N)c1C,0.128
13,COC(=O)c1cc(OC)c(OC)cc1NC(=O)c1ccc(Br)o1,4.74
14,COc1ccccc1/C=N/NC(=O)CNC(=O)c1ccc(S(=O)(=O)N(C)C)cc1,13.4
15,CN(CCn1ccnc1)C(=O)CC1C(=O)NCCN1Cc1ccccc1C(F)(F)F (stereo not drawn),1.11
16,CC1Nc2ncnc(N3CCc4ccccc4C3)c2N(Cc2ccc(Cl)cc2)C1=O.O=C(O)C(F)(F)F (stereo not drawn),-2.38
17,CC(C)C[C@H](N)C(=O)N1CCC(C(=O)N[C@H](C(=O)NC(C)c2ccccc2)C(C)C)CC1 (stereo partly drawn),7.77
18,Cc1cccc(OCC(=O)OCC(=O)N(CC(C)C)c2c(N)n(Cc3ccccc3)c(=O)[nH]c2=O)c1C,1.47
19,C=C(C)COc1ccc(-c2nc(N)ncc2-c2ccc(Cl)cc2)c(O)c1,8.91
20,O=C(NN1C(=O)C2C3C=CC(C4CC34)C2C1=O)c1ccccc1Cl (stereo not drawn),0.861
21,CNc1oc(Cc2ccccc2)nc1S(=O)(=O)c1ccc(Cl)cc1,-16

row,Structure (SMILES),"hERG current change (%, negative = inhibition) at 10uM [%]"
1,CC(=O)Nc1ccc(NC(=O)C(C)OC(=O)c2cccs2)cc1 (stereo not drawn),-0.153
2,CCCC(C)NC(=O)Cc1ccc(S(=O)(=O)N2CCOCC2)s1 (stereo not drawn),2.63
3,CCn1cc(C(=O)NCc2ccc(C)cc2)c(=O)c2cc(S(=O)(=O)N(C)C)ccc21,8.52
4,O=C(c1cc(S(=O)(=O)N2CCOCC2)ccc1Cl)N1CCN(c2ccccn2)CC1,10.9
5,COc1cc(C2Nc3cccc4cccc(c34)N2)ccc1O,11.4
6,Cc1ccc2c(CC(=O)N(CC3CCCO3)c3c(N)n(Cc4ccccc4)c(=O)[nH]c3=O)coc2c1 (stereo not drawn),-1.74
7,CN1CCO/C1=C(\C(Cl)=C(Cl)Cl)[N+](=O)[O-],17.8
8,O=C1CCC(=O)N1c1ccc(S(=O)(=O)N2CCCC2)cc1,1.94
9,O=C(Cn1ccc([N+](=O)[O-])n1)Nc1nccs1,4.65
10,COc1cccc(-c2ccc3nnc(SCC(=O)Nc4ccc(NC(C)=O)cc4)n3n2)c1,2.63
11,CN(Cc1ccccc1)C(=O)CN1C(=O)NC2(CCCCCCC2)C1=O,-11.7
12,CC(=O)Nc1ccc2c(CSc3nnc(-c4cccnc4)n3-c3ccc(C)cc3C)cc(=O)oc2c1,-17.8
13,Cc1cc(C)c2sc(NNC(=O)C3COc4ccccc4O3)nc2c1 (stereo not drawn),5.82
14,Cc1ccc2[nH]ccc(=O)c2c1,11.7
15,CN(CCc1ccccn1)C(=O)CCC1CCCN(Cc2ccccc2OC(F)F)C1 (stereo not drawn),1.62
16,CCOC(=O)[C@H]1[C@H]2COc3ccc(OC)cc3[C@@H]2N2C(=O)CN(Cc3ccc(F)cc3)C(=O)[C@@]12C,-26.5
17,CC1(C)S/C(=N/N=C/c2ccco2)NC1=O,13.9
18,CCn1cc(C(=O)NCCCN2CCN(C)CC2)c(=O)c2cc(S(=O)(=O)N3CCc4ccccc4C3)ccc21,-20.4
19,Nc1nc(C(c2ccccc2)c2ccccc2)cs1,5
20,CCn1c(C)nc2cc(C(=O)NNC(=O)c3ccc(Cl)nc3)ccc21,21.2
21,COc1cc(OC)c(OC)cc1CNC(=O)CCN1C(=O)c2cccc([N+](=O)[O-])c2C1=O,17.6
